According to PubChem BioAssay AID463173 (ICCB-Longwood Screening Facility, Harvard Medical School, 2010):
About 4,300 (8.3%) of roughly 52,000 compounds were called active. Cut-off read from the data, not from the text of the source: active = survival mostly below about 52% (no sharp cut-off); inactive = mostly above about 56%. This is one part of the list.

tested on: DeltatarO mutant; test: growth inhibition of S. aureus wild type versus tarO mutant, primary screen, teichoic acid synthesis inhibitors, RN4220, OD600 (AID 463173); settings: OD600, 18 h, active compounds read low, screened at 18.75 µg/mL (by protocol)

Row | Structure (SMILES) | survival
1 | CCc1oc(C(=O)O)cc1COC | inactive: 105%
2 | CCOc1ccccc1CN1CCc2nc(N3CCN(C)CC3)ncc2C1 | active: -2%
3 | Cc1ccc(NC(=O)CSc2nc(-c3cccs3)nc3cc(=O)[nH]n23)cc1C | inactive: 67%
4 | COc1ccc(-c2cn3cccnc3n2)cc1NC(=O)Nc1cc(C)ccc1C | inactive: 63%
5 | O=C(NCCc1ccccc1)C1CCN(Cc2cc3ccccc3n2Cc2ccccc2)CC1 | inactive: 79%
6 | CC(=O)C1=C(c2ccc(F)cc2)N(C(C)=O)n2c(nnc2C2CCCCC2)S1 | inactive: 88%
7 | Cc1cccc(OCc2nnc(SCC(N)=O)o2)c1 | inactive: 91%
8 | CCOc1ccc(C(=O)NCC(c2ccc(Cl)cc2)N2CCCCC2)cc1 (stereo not drawn) | inactive: 78%
9 | O=C(NCCc1ccc(Cl)cc1)c1ccc2c(c1)nc1n2CCOC1 | inactive: 76%
10 | CN(C)CCN(Cc1ccco1)C(=O)c1cc2c(s1)-c1ccccc1OC2 | inactive: 69%
11 | COc1ccc(-c2onc(C)c2C)cc1S(=O)(=O)Nc1cccc(C#N)c1 | inactive: 126%
12 | CCOC(=O)N1CCc2c(sc3c2c(=O)n(-c2ccc(F)cc2)c(=O)n3CC(=O)c2ccc(Cl)cc2)C1 | inactive: 71%
13 | CCc1ccc(NS(=O)(=O)c2ccc(-c3cc(C)no3)cc2)cc1 | inactive: 102%
14 | Cc1cccc(NC(=O)C2CC(=O)NC(Nc3nc4ccccc4s3)=N2)c1 (stereo not drawn) | inactive: 83%
15 | CCNC(=S)N1CCN(C(=O)C(Cc2ccccc2)NC(C)=O)CC1 (stereo not drawn) | inactive: 94%
16 | O=C(CN1C(=O)C2(SCC(=O)N2c2cccc(F)c2)c2ccccc21)NCCc1ccccc1 (stereo not drawn) | inactive: 68%
17 | CC(=O)Nc1ccc(NC(=O)Cc2ccccc2)cc1 | inactive: 115%
18 | O=C(NCCc1csc(-c2cccnc2)n1)c1ccccc1 | inactive: 77%
19 | Cc1ccccc1C(=O)OCc1cc(=O)n2nc(C3CCCCC3)sc2n1 | inactive: 83%
20 | Cc1nnc2c(N3CCN(c4ccc(F)cc4)CC3)nc3ccc(C(=O)c4ccccc4)cc3n12 | inactive: 144%

Row | Structure (SMILES) | survival
21 | O=C1C2C3c4ccccc4C(c4ccccc43)C2C(=O)N1CCN1CCNCC1 (stereo not drawn) | inactive: 76%
22 | Cc1cc(C)c(NC(=O)C(C)n2c(=O)cc(-c3ccccc3)c3c(C)nn(C)c32)c(C)c1 (stereo not drawn) | inactive: 83%
23 | CCCCNc1ccc(-c2nc(-c3ccccn3)no2)cc1[N+](=O)[O-] | active: 46%
24 | COc1ccc(-c2nnn3c2nc(NCc2ccc(C)cc2)c2ccccc23)cc1 | inactive: 84%
25 | CCCNC(=O)CSc1c(CCC)cnc2c1c(=O)n(C)c(=O)n2C | inactive: 77%
26 | COc1ccc(OC)c(NC(=O)Cn2ccn(-c3ccc(OC)c(OC)c3)c(=O)c2=O)c1 | inactive: 91%
27 | O=C(N1CCOCC1)N1CCC(c2ccc(F)cc2)CC1 | inactive: 95%
28 | CCc1ccc(NC(=O)Nc2ccccc2OCc2cc(=O)n3ccccc3n2)cc1 | inactive: 65%
29 | CCOC(=O)c1cc(-c2ccc(OC)c(S(=O)(=O)NCc3ccccc3Cl)c2)on1 | inactive: 88%
30 | CC1CCCCN1CCCNC(=O)CN1C(=O)CSc2ccc(S(=O)(=O)N3CCOCC3)cc21 (stereo not drawn) | inactive: 101%
31 | O=C(NCc1ccc(Cl)cc1)C1=Cc2cc(Br)ccc2OC1 | inactive: 94%
32 | CCC(=O)N1CCc2cc(Br)cc(S(=O)(=O)N3CCCC(C(=O)Nc4cc(C)ccc4OC)C3)c21 (stereo not drawn) | inactive: 84%
33 | CCOc1ccc(NC(=O)CN2C(=O)C(c3ccc(Cl)cc3)=NC2(C)C)cc1 | inactive: 85%
34 | Cc1ccc(Cl)cc1N1CCN(C(=O)c2cc3ccc4cccnc4c3[nH]2)CC1 | inactive: 131%
35 | Oc1cccc(/C=N/N=C/c2cccc(O)c2O)c1O | inactive: 110%
36 | COc1ccc(C)cc1NC(=O)c1c2c(nc3ccccc13)C(=O)N(C1CCCCC1)C2 | inactive: 63%
37 | Cc1ccc(Cl)cc1NC(=O)C(Cc1ccccc1)NS(=O)(=O)c1cccc2nsnc12 (stereo not drawn) | inactive: 79%
38 | CCN(C(=O)CSc1ncc2c(n1)-c1cc(Cl)ccc1N(Cc1ccccc1)S2(=O)=O)c1cccc(C)c1 | inactive: 83%
39 | CCc1c(C)sc2c1CCN(C(=O)Nc1ccccc1C(=O)OC)C2c1ccc(OC)cc1 (stereo not drawn) | inactive: 92%
40 | Cc1ccc(NS(=O)(=O)c2ccc3c(c2)CC(=O)N3)cc1Cl | active: 47%

Row | Structure (SMILES) | survival
41 | COc1ccc(OC)c(C2Nc3c(C)cc(C)cc3-c3cc(C)nn32)c1 (stereo not drawn) | active: -3%
42 | CCOc1ccccc1NC(=O)Cn1ncc2c([nH]c3ccccc32)c1=O | inactive: 126%
43 | CCn1c(=O)c2cc(C(=O)NCCCN3CCN(c4ccc(F)cc4)CC3)sc2c2ccccc21 | inactive: 58%
44 | O=C(NCc1ccccc1)C1CCN(C(=O)NCc2ccccc2)CC1 | inactive: 90%
45 | O=C1/C(=C/c2ccco2)SC(=S)N1CCc1ccccc1 | inactive: 95%
46 | Cc1ccccc1OCC(=O)Nc1nnc(S(=O)(=O)N2CCCC2)s1 | active: 42%
47 | CC(C)Oc1ccc(CNC(=O)c2ccc3c(c2)nc2n3CCCCC2)cc1 | inactive: 91%
48 | COc1cc(OC)c(NC(=O)c2c(N3CCCC3=O)c3cc(C)ccc3n2C)cc1Cl | inactive: 67%
49 | COc1ccc(OC)c(CNC(=O)c2ccc3nc(C(C)C)oc3c2)c1 | inactive: 91%
50 | COc1ccc(Cl)cc1C(=O)Nc1ccc2nc(Nc3cccc(Cl)c3)cc(C)c2c1 | inactive: 93%
51 | CCCc1ccc(S(=O)(=O)N2CCC(c3nnc(-c4cccc(C)c4)o3)CC2)cc1 | inactive: 75%
52 | Cc1cccc(N2C(=O)CSC23C(=O)N(CC(=O)Nc2cccc(Cl)c2)c2ccccc23)c1 (stereo not drawn) | inactive: 100%
53 | CC1CCN(S(=O)(=O)c2cc3c4c(c2)C(C)C(=O)N4CCC3)CC1 (stereo not drawn) | inactive: 107%
54 | C=C/C=C(\C=C(C)C)N(C(=O)NC1CCCCC1)C1=NCCCS1 | inactive: 102%
55 | O=C(NC1CCCCCC1)C1c2ccccc2C(=O)N1Cc1ccc(F)cc1 (stereo not drawn) | inactive: 111%
56 | COc1ccccc1CCN1COc2c(cc3c(C)c(C)c(=O)oc3c2C)C1 | inactive: 103%
57 | O=C(NCc1ccco1)C(c1cccs1)N(C(=O)C1COc2ccccc2O1)c1cccc(O)c1 (stereo not drawn) | inactive: 63%
58 | COc1ccc(CNC(=O)CN2C(=O)CSc3ccc(S(=O)(=O)N(C)C)cc32)cc1 | inactive: 124%
